Test results published in the supplement of paper PMC10126150.
Sequences with one replicate were seen in a single cluster, so their values are uncertain.

System: ATP
Assay: switch fluorescence ratio, 500 uM ATP over buffer (Cy3 cluster intensity, sum of 5 cycles each) (fold (ratio)); higher = stronger signal-on switching upon ATP binding; sequences stand for … in TCGTCGGCAGCGTCAGATGTGTATAAGAGACAGTTTTTTTTTTTTTTTTTTTTTTTTT…TC
Conditions: aptamer strand: ATP DNA aptamer (quencher-CACCTGGGGGAGTATTGCGGAGGAAGG + anchor), 100 nM annealed; ATP concentration: 500 uM; one replicate
Outline: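 Clusters carrying Cy3-labelled switching strands on a modified Illumina MiSeq flow-cell were annealed to 100 nM quencher-labelled ATP aptamer and imaged in selection buffer. They were imaged again after 15 min with 500 uM ATP at 22 °C, over five buffer/ATP cycles with NaOH stripping and re-annealing in between. For each cluster, the fluorescence ratio is the summed Cy3 intensity of the target cycles divided by that of the buffer cycles, averaged per switch-domain sequence. Clusters outside 100-1000 RFU were left out.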
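Note: ATP exposure 15 min at 22 °C before imaging.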

Row | Sequence | switch fluorescence ratio
1 | AAGGGAAGC | 1.04
2 | TTGGATAACT | 0.98
3 | GAGGCGTCCT | 1.08
4 | GTAAGACAAC | 1
5 | GTATGTACGT | 1.04
6 | TGATCTTCCA | 1.01
7 | TTGACTGTG | 0.974
8 | CAACTACTG | 1.07
9 | GCGAAATCTC | 1.3
10 | GCCGTCACTT | 0.996
11 | AGACAGCGGT | 0.959
12 | GATAGTATGG | 0.99
13 | GCTTCGGCCC | 1.05
14 | GTAACCGGTT | 0.979
15 | CTTAGAGTAC | 0.992
16 | CCACGCTGAA | 1.46
17 | AGAACGGAGG | 0.983
18 | CGGTGGACCG | 0.977
19 | TTCTCCTAGG | 1.24
20 | TTTCGGCCTC | 1.01
21 | ACATACTCCT | 1.38
22 | AGTTAAGTAC | 1.47
23 | AGTTAAGAG | 1.01
24 | CGCGTCTCAA | 1.04
25 | TGGTAGTGAT | 1.01

Row | Sequence | switch fluorescence ratio
26 | AGGTAGCTCA | 0.961
27 | AGACGGGGG | 1
28 | TTAAAATGAC | 1.02
29 | GCGCCGAGTC | 1.08
30 | GAGTAATGTG | 1.01
31 | ATTCTATCTC | 0.983
32 | CAGGACTGGT | 0.984
33 | ATCTGGTGT | 1.08
34 | ATTTTTGCAG | 0.978
35 | TATAGCAGGC | 1.3
36 | GCCATTTGGC | 0.991
37 | CAGTTTATAT | 1.02
38 | TTGCTACGTG | 1
39 | GCCATTCGCC | 1.03
40 | TAATTCGAGA | 0.978
41 | TGGGCAGGCG | 1.04
42 | TCGCGGCAGA | 1.01
43 | CGTAGTAGCG | 1.02
44 | TCTCCGAAGG | 1.59
45 | ATGGTCATCT | 0.999
46 | TCAAGCGGAT | 1.01
47 | CTTTATCCAG | 0.975
48 | GGTCTTACGG | 1
49 | CTTACGGTAC | 1.76
50 | CATAGCTT | 1.06

Row | Sequence | switch fluorescence ratio
51 | CTGGATATGG | 0.984
52 | ATTTTTTGAT | 0.991
53 | GCATTGTCGG | 0.969
54 | AGGTGGCGGG | 0.997
55 | TGAGTTCTAG | 1.01
56 | CCCCGCGGGG | 4.73
57 | CCTTGCTAGC | 2.5
58 | GAGAATAGCT | 1
59 | AGGTTATATC | 1.02
60 | GGCGTTCCTC | 1.51
61 | GCCCCCTAAA | 1.01
62 | CCCATTTGAG | 1.05
63 | AATACTTAAC | 1.16
64 | ACTAAACTAT | 1.11
65 | CCGGTGTCAT | 1.21
66 | CCTTTTAGAC | 1.14
67 | TTTAGAAAAG | 1.04
68 | ACTGTTTGAA | 0.979
69 | TATCCCCAAG | 1.06
70 | CGAAGATTAA | 0.971
71 | TAACTTTGGA | 0.96
72 | AGCGTCGACA | 1.02
73 | GCCGCAAATA | 4.37
74 | GCAGGTCCGA | 1.02
75 | ATAAAGGCAT | 0.983

Row | Sequence | switch fluorescence ratio
76 | TTGGACCTTG | 0.993
77 | GAAAGGAATC | 1.03
78 | ATTGGTCGGA | 0.971
79 | CTAGAGTAG | 1
80 | AGGGCTAAAA | 0.993
81 | TCGCCGGGAA | 1.03
82 | GTCTTCGG | 0.944
83 | ATGTTGTCAA | 0.997
84 | GTGAACTCTT | 1.03
85 | TACAAAATGA | 1.04
86 | TACTATTACC | 1.24
87 | ACCGCGGGCA | 0.972
88 | TACTTTATAT | 1.09
89 | CGTTTCGACG | 1.01
90 | TGGTCTCAGG | 1.08
91 | TGGTGTTATC | 1.02
92 | CAGCGAGCTG | 0.998
93 | ACTATGCGTT | 1.07
94 | AAGCGAGATT | 1.01
95 | ACGCCTTTTG | 0.956
96 | ACAAATTAAT | 1
97 | TTGTAGGCAG | 0.976
98 | GGGCATCACT | 0.987
99 | CTTGTGTAGA | 0.962
100 | AATGTGTTTA | 1.01

Row | Sequence | switch fluorescence ratio
101 | ATGTCCAGTC | 1.02
102 | ACATAAAGTG | 0.988
103 | GGTTATTTAG | 0.984
104 | AGCTAATGAA | 0.988
105 | ACTTAAATCT | 1.41
106 | ACTTCAGGTA | 1.02
107 | GCCTCTAACA | 1.04
108 | AAAGCGCTTG | 1.03
109 | TGTACGGAAA | 0.962
110 | AGCAGATCCA | 0.947
111 | ACATGGGGAT | 1.01
112 | GGGAGACACA | 0.976
113 | TATTCTACAG | 1.04
114 | CACTAGCGGT | 1.02
115 | TGCGATTGAT | 1.01
116 | GATTGTAGCG | 0.942
117 | AACCCAGCAT | 1.18
118 | TCTCGGGCTC | 2.63
119 | ACCGGCGAAA | 1.27
120 | TTGGTCTGCA | 0.98
121 | TCAGTGCTCT | 1
122 | GAGTGGAATT | 1.02
123 | CTAGACTGAA | 1.01
124 | GCCACAAGCT | 1.07
125 | TTAGTGACCG | 1.05

Row | Sequence | switch fluorescence ratio
126 | CGTTCGTAAT | 3.8
127 | AGTGGCGGTT | 0.962
128 | TCACCAAGGT | 1.3
129 | GTGTGCCCGT | 1.03
130 | GAATTTTGGT | 1.01
131 | GGACGGTAAC | 1.22
132 | ACGATCGTGG | 1
133 | AGTAGGTTGA | 1.01
134 | TGGTCACACG | 0.979
135 | ACGGTTGCGT | 0.957
136 | TCCTGCGGAG | 1.12
137 | CAACTGTTG | 1.01
138 | ACGCTAGTTC | 1.05
139 | CTAACGCTGT | 1.23
140 | CTACTAGTGC | 1.13
141 | GGGTCTCGG | 1.03
142 | CTAATGTCCC | 0.973
143 | TGCGAGCGAA | 0.983
144 | GCTGGGGAGC | 0.968
145 | TTGCTGCTGG | 1.02
146 | GTGTCGGTGT | 0.99
147 | TGTTGTTCCC | 1
148 | AGGCCCTAAA | 0.968
149 | AAAAATGGTA | 1.01
150 | GTTGTGTG | 0.948

Row | Sequence | switch fluorescence ratio
151 | ACGGGCGTGC | 0.989
152 | AAATTTATTG | 1.06
153 | ATCCAAGAGC | 1
154 | CGATGGCCGA | 1.03
155 | GGCTAGTCGC | 0.982
156 | TTTCAGGGAC | 1.12
157 | TTTCCAGTAG | 0.973
158 | CATGACGAGC | 1.1
159 | AATGCTGGGA | 1.01
160 | GTGGCATGCG | 1.01
161 | TTTGACAGGT | 1.06
162 | GTATCCACGG | 1.07
163 | CTTTGCTGGG | 0.947
164 | AACAATGTGA | 0.966
165 | AACGCGAGTT | 1.01
166 | GATAGACCAT | 1.01
167 | GAATGTGGTG | 0.968
168 | CCACGATGGC | 1.24
169 | GTGAGTACCG | 0.995
170 | GGGAAGCGCG | 0.953
171 | TTTGAAGCAC | 1.2
172 | GGGACTATAA | 0.97
173 | TCTGATGTCG | 0.988
174 | AAATTTTTTA | 1.04
175 | ATATGTCCCG | 0.957

Row | Sequence | switch fluorescence ratio
176 | GATAAAGTCA | 0.941
177 | TTTGATGGAA | 0.974
178 | CAGGGCCCCA | 0.958
179 | TAGTTCAAGG | 1.05
180 | AGTACATCCG | 0.972
181 | GTGTGCTGTT | 0.989
182 | GACCCTGAGG | 1.06
183 | GAGGTACGTG | 1.02
184 | ATCACAGCGC | 1.01
185 | AAAAGCGTGA | 1
186 | AGTGATGGAA | 1.03
187 | TCTTCATCCC | 1.18
188 | ATAGGTGTTC | 0.964
189 | CGAGAGGGTA | 0.916
190 | AGTCGAAGGT | 0.973
191 | AAAAAGGAAA | 0.999
192 | AGAGAGCCTT | 0.993
193 | TCTGTTAGCC | 1.02
194 | TACTTGTGAC | 1.05
195 | CAGAAAACGG | 1.05
196 | AGATTGCAGC | 0.992
197 | GGCTAAATAT | 1.02
198 | AACGGTCGGA | 1
199 | ATAAAATTCT | 0.993
200 | AGATCCTCAT | 1.04
